The results in this text go back to the supplement of paper PMC4967469.

IC50 is the fitted dose that halves viability relative to control wells, and lower means more sensitive; fits outside the tested doses are given as limits. AUC sums up the same curve from the lowest dose to the 256-fold higher top dose: 1 means no effect, lower means more sensitive. A top dose marked as inferred was derived from the fitted curves, not read from the paper.

Compound in one assay: COc1cc(-c2nn([C@H]3CC[C@H](N4CCN(C(C)=O)CC4)CC3)c3ncnc(N)c23)ccc1NC(=O)c1cc2ccccc2n1C [A-770041]
The assay can be described thus: Viability of human cancer cell lines after 72 h of drug (GDSC screen). Particulars: top dose 5.12 µM; top dose inferred. The method, then:
(§1)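 Human cancer cell lines in 384-well plates, medium with 10% serum, drug for 72 h over a 256-fold dose range (nine 2-fold or five 4-fold steps up to the top dose). Adherent lines were fixed and stained with the nucleic acid dye Syto60, suspension lines read with resazurin; signal relative to control wells, capped at 0 and 100%. One two-parameter sigmoid per drug and line, fitted in a mixed model over all curves with the slope shared within a line.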
By IC50 is commonly meant the concentration that gives 50% inhibition. As to “NCI-H345 (small cell lung carcinoma, suspension)”, the AUC turned out to be 0.943 and the IC50 was over 5.12 µM.

For “NCI-H446 (small cell lung carcinoma, semi-adherent)”, the AUC is 0.885 and the IC50 was over 5.12 µM.

On to “NCI-H524 (small cell lung carcinoma, suspension)”, for which the AUC was 0.99 and the IC50 was over 5.12 µM.

With NCI-H720 (lung carcinoid, suspension), the AUC worked out at 0.848 and the IC50 is 3.34 µM.

As to NCI-H747 (large intestine, adherent), the AUC stood at 0.76 and the IC50 worked out at 2.18 µM.

With “NCI-H847 (small cell lung carcinoma, adherent)”, the AUC amounted to 0.988 and the IC50 is over 5.12 µM.

For the cell line “NCI-H1155 (large cell lung carcinoma, suspension)”, the AUC came out at 0.984 and the IC50 is over 5.12 µM.

As for “NCI-H1304 (small cell lung carcinoma, suspension)”, the AUC amounted to 0.96 and the IC50 was over 5.12 µM.

Turning to “NCI-H1395 (lung adenocarcinoma, adherent)”, the AUC came to 0.899 and the IC50 was over 5.12 µM.

As for “NCI-H1436 (small cell lung carcinoma, suspension)”, the AUC was found to be 0.788 and the IC50 stood at 2.6 µM.

As to “NCI-H1694 (small cell lung carcinoma, suspension)”, the AUC turned out to be 0.983 and the IC50 is over 5.12 µM.

In the case of “NCI-H1770 (non-small cell lung carcinoma, suspension)”, the AUC came to 0.964 and the IC50 is over 5.12 µM.

On to “NCI-H1876 (small cell lung carcinoma, adherent)”, for which the AUC is 0.973 and the IC50 was over 5.12 µM.

As for “NCI-H2141 (small cell lung carcinoma, suspension)”, the AUC was 0.937 and the half-maximal inhibitory concentration (IC50) is over 5.12 µM.

Compound in a further assay: COc1cc(N2CCN(C)CC2)ccc1Nc1ncc2c(n1)N(C)c1ccccc1C(=O)N2C [XMD8-85]
Described as above. Particulars: top dose 8 µM; top dose inferred. The protocol:
as §1
With NB69 (neuroblastoma, adherent), the AUC was 0.824 and the IC50 was determined as 4.05 µM.

Consider NB(TU)1-10 (neuroblastoma, adherent), for which the AUC stood at 0.891 and the IC50 was 7.12 µM.

Turning to “NB-4 (acute myeloid leukaemia, suspension)”, the AUC was 0.889 and the IC50 amounted to 6.26 µM.

On to “NCI-H82 (small cell lung carcinoma, suspension)”, for which the AUC was determined as 0.97 and the IC50 was over 8 µM.

In the case of “NCI-H226 (lung squamous cell carcinoma, adherent)”, the AUC is 0.864 and the IC50 came to 7.55 µM.

Turning to “NCI-H345 (small cell lung carcinoma, suspension)”, the AUC was found to be 0.99 and the IC50 is over 8 µM.

In the case of “NCI-H446 (small cell lung carcinoma, semi-adherent)”, the AUC is 0.937 and the IC50 was over 8 µM.

In the case of “NCI-H524 (small cell lung carcinoma, suspension)”, the AUC is 0.958 and the IC50 is over 8 µM.

In the case of NCI-H720 (lung carcinoid, suspension), the AUC is 0.992 and the IC50 was over 8 µM.

For the cell line NCI-H747 (large intestine, adherent), the AUC was found to be 0.921 and the IC50 was over 8 µM.

As for “NCI-H847 (small cell lung carcinoma, adherent)”, the AUC came to 0.96 and the IC50 is over 8 µM.

With “NCI-H1155 (large cell lung carcinoma, suspension)”, the AUC is 0.979 and the IC50 was over 8 µM.

As to “NCI-H1304 (small cell lung carcinoma, suspension)”, the AUC was found to be 0.939 and the IC50 is over 8 µM.

“NCI-H1395 (lung adenocarcinoma, adherent)”: the AUC worked out at 0.945 and the IC50 is over 8 µM.

Consider “NCI-H1436 (small cell lung carcinoma, suspension)”, for which the AUC came to 0.981 and the IC50 is over 8 µM.

For the cell line “NCI-H1694 (small cell lung carcinoma, suspension)”, the AUC came to 0.958 and the IC50 is over 8 µM.

As for “NCI-H1770 (non-small cell lung carcinoma, suspension)”, the AUC turned out to be 0.79 and the IC50 stood at 3.09 µM.

As to “NCI-H1876 (small cell lung carcinoma, adherent)”, the AUC worked out at 0.937 and the IC50 was over 8 µM.

Consider “NCI-H2141 (small cell lung carcinoma, suspension)”, for which the AUC came to 0.979 and the IC50 was over 8 µM.

Compound in the next assay: CNC(=O)c1ccc(Nc2cc(Nc3ccccc3S(=O)(=O)C(C)C)c3cc[nH]c3n2)nc1 [HG-5-113-01]
The description is as above. Particulars: top dose 10 µM; top dose inferred. The protocol: as §1
For the cell line NB69 (neuroblastoma, adherent), the AUC came out at 0.507 and the IC50 was found to be 0.65 µM.

As for NB(TU)1-10 (neuroblastoma, adherent), the AUC came to 0.989 and the IC50 was over 10 µM.

For the cell line “NB-4 (acute myeloid leukaemia, suspension)”, the AUC came to 0.632 and the IC50 is 1.34 µM.

“NCI-H82 (small cell lung carcinoma, suspension)”: the AUC was 0.76 and the IC50 amounted to 3.36 µM.

As to “NCI-H226 (lung squamous cell carcinoma, adherent)”, the AUC worked out at 0.75 and the IC50 was found to be 3.4 µM.

For “NCI-H345 (small cell lung carcinoma, suspension)”, the AUC worked out at 0.92 and the IC50 is over 10 µM.

“NCI-H446 (small cell lung carcinoma, semi-adherent)”: the AUC was determined as 0.751 and the IC50 stood at 3.5 µM.

“NCI-H524 (small cell lung carcinoma, suspension)”: the AUC came to 0.645 and the IC50 came out at 1.5 µM.

For the cell line NCI-H720 (lung carcinoid, suspension), the AUC turned out to be 0.886 and the IC50 came to 9.47 µM.

In the case of NCI-H747 (large intestine, adherent), the AUC is 0.764 and the IC50 came to 4.4 µM.

In the case of “NCI-H847 (small cell lung carcinoma, adherent)”, the AUC is 0.605 and the IC50 came out at 1.14 µM.

Regarding “NCI-H1155 (large cell lung carcinoma, suspension)”, the AUC came out at 0.791 and the IC50 is 3.64 µM.

Regarding “NCI-H1304 (small cell lung carcinoma, suspension)”, the AUC was 0.846 and the IC50 came to 8.2 µM.

Regarding “NCI-H1395 (lung adenocarcinoma, adherent)”, the AUC worked out at 0.877 and the IC50 is over 10 µM.

For “NCI-H1436 (small cell lung carcinoma, suspension)”, the AUC is 0.81 and the IC50 came out at 6.18 µM.

On to “NCI-H1694 (small cell lung carcinoma, suspension)”, for which the AUC came out at 0.884 and the IC50 is over 10 µM.

Consider “NCI-H1770 (non-small cell lung carcinoma, suspension)”, for which the AUC amounted to 0.866 and the IC50 came to 7.16 µM.

On to “NCI-H1876 (small cell lung carcinoma, adherent)”, for which the AUC was determined as 0.859 and the IC50 worked out at 8.47 µM.

On to “NCI-H2141 (small cell lung carcinoma, suspension)”, for which the AUC is 0.917 and the IC50 was over 10 µM.

Compound in the next assay: CCNc1cc(NC2CCC(O)CC2)nc(Nc2ccc3c(ccn3Cc3ccccc3)c2)n1 [CGP-082996 (CINK4)]
The description is as above. Particulars: top dose 5.12 µM; top dose inferred. The method, then:
as §1
Consider NB69 (neuroblastoma, adherent), for which the AUC came to 0.989 and the IC50 is over 5.12 µM.

As for NB(TU)1-10 (neuroblastoma, adherent), the AUC was 0.992 and the IC50 was over 5.12 µM.

In the case of “NB-4 (acute myeloid leukaemia, suspension)”, the AUC was determined as 0.959 and the IC50 was over 5.12 µM.

For “NCI-H82 (small cell lung carcinoma, suspension)”, the AUC is 0.967 and the IC50 is over 5.12 µM.

“NCI-H226 (lung squamous cell carcinoma, adherent)”: the AUC was found to be 0.972 and the IC50 is over 5.12 µM.

“NCI-H345 (small cell lung carcinoma, suspension)”: the AUC was 0.99 and the IC50 was over 5.12 µM.

As to “NCI-H446 (small cell lung carcinoma, semi-adherent)”, the AUC was determined as 0.978 and the IC50 was over 5.12 µM.

“NCI-H524 (small cell lung carcinoma, suspension)”: the AUC turned out to be 0.968 and the IC50 was over 5.12 µM.

NCI-H720 (lung carcinoid, suspension): the AUC amounted to 0.987 and the IC50 was over 5.12 µM.
